Reference: PubChem BioAssay AID504832 (National Center for Advancing Translational Sciences (NCATS), 2011)
Hit rate of the full screen: of about 310,000 compounds, about 18,000 (5.8%) were called active. Inconclusive results, whose numbers are uncertain, are shown with a selection of clear calls. The call rests on the fitted dose curve; in most records, active means well fitted inhibition curve with a large enough effect; inconclusive means small, poorly fitted or top-dose-only effect, or another doubt; inactive means no such curve, though single readings can be large or run the other way. No potency is given beside an inconclusive call; the fits are too rough.

Assay: Primary qHTS for delayed death inhibitors of the malarial parasite plastid, 48 hour incubation
Conditions: P. falciparum luciferase growth in erythrocytes; series mostly up to 28.7 µM; activity change, negative = inhibition: at the top concentration
In short: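 A one-generation exposure of luciferase-tagged malaria parasites in RPMI 1640/Albumax erythrocyte culture, 37 C and 5% CO2. Inhibition is inferred from decreased luminescence after adding detection reagent.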
On the % scale 0 is the no-effect control and ±100 the full control effect; potency means the concentration at half of the fitted maximal effect; tags describe the fitted curve by direction and shape.

SMILES | Potency | activity change, negative = inhibition
Cc1ccccc1Nc1nc(-c2sc(NC(=O)c3ccccc3)nc2C)cs1 | active: 9.28 µM | –
COc1ccc(CNc2cc(C)ccc2C)c(OC)c1OC | inconclusive [inhibitor, single point] | –
C=CCn1c(=O)/c(=C/c2cc(OC)c(OC)c(OC)c2)s/c1=C(/C#N)c1nc2ccccc2n1C | active: 5.22 µM | –
CCOC(=O)/C=C/[C@H]1CCc2cccc(C)c2O1 | – | inactive: 12.4%
Cc1sc(NC(=O)c2cccc(N3C(=O)CCC3=O)c2)nc1-c1ccccc1 | inconclusive [inhibitor, partial curve, poor fit] | –
Cc1onc(-c2ccccc2Cl)c1C(=O)N[C@H]1C(=O)N2[C@H]1SC(C)(C)[C@H]2C(=O)O | – | inactive: -27.1% [at 12.8 µM]
CCn1c(SCC(=O)Nc2cc(OC)ccc2OC)nc2c(c1=O)SCC2 | inconclusive [inhibitor, single point] | –
O=C(NCCCN1CCCC1=O)c1ccc(NS(=O)(=O)c2ccccc2)cc1 | inconclusive [inhibitor, single point] | –
CC(O)CNCCCOc1cccc(Oc2ccccc2)c1 (stereo unspecified) | inconclusive [inhibitor, single point] | –
COc1ccccc1/C=C/CN1CCC(n2nccc2NC(=O)C2CC2)CC1 | – | inactive: 6.51%
COc1cc(NC(=O)c2cccs2)c(C(=O)OCC(=O)c2cc(C)n(-c3ccccc3)c2C)cc1OC | inconclusive [inhibitor, single point] | –
CC1CCN(CCOCCOc2ccccc2Br)CC1 | – | inactive: -22.8%
O=C(COc1coc(CN2CCN(c3ccccc3)CC2)cc1=O)N1CCc2ccccc21 | – | inactive: -2.8%
CCOc1ccc(/C=C2/C(=O)N(c3ccc(OC)cc3)C(=S)N2CC(=O)OC)cc1OCC | inconclusive [inhibitor, single point] | –
COc1cccc(NC(=S)N2CCN(c3ccccn3)CC2)c1 | – | inactive: 13.6%
CC(NCC(O)COC1CCC(C(C)(C)C)CC1)c1ccccc1 (stereo unspecified) | inconclusive [inhibitor, partial curve] | –
COc1cc(Cl)c(S(=O)(=O)NCc2ccccn2)cc1Cl | – | inactive: -14.5%
O=C(NCc1ccccc1Cl)c1ccc(CSc2nc3ccncc3[nH]2)cc1 | active: 11.7 µM | –
CCOc1cc(NC(=S)NCCCN(C)C)c(OCC)cc1NC(=O)c1cccs1 | inconclusive [inhibitor, single point] | –
CCOc1ccc(CN(C)CC(=O)c2c(N)n(Cc3ccccc3)c(=O)n(CC)c2=O)cc1OC | inconclusive [inhibitor, partial curve, poor fit] | –
Cc1ccnc(NC(=O)C2COc3ccccc3O2)c1 (stereo unspecified) | – | inactive: 211%
O=C(CCl)NC1(C(F)(F)F)C(=O)Nc2c1c(=O)[nH]c(=O)n2-c1ccccc1 (stereo unspecified) | – | inactive: 22.9%

SMILES | Potency | activity change, negative = inhibition
CCOc1ccc(N(CC(=O)NC(C)C)C(=O)CCC(=O)Nc2ccccn2)cc1 | – | inactive: -10.5%
COCCn1c(SCC(=O)N2CCCCC2)nc2c([nH]c3ccccc32)c1=O | active: 11.7 µM | –
Cc1ccc(/C=C2\CCOC2=O)cc1 | inconclusive [inhibitor, single point] | –
CCC1(C)Cc2c(sc3nnn(CC(=O)Nc4ccc(Cl)cc4)c(=O)c23)CO1 (stereo unspecified) | inconclusive [inhibitor, full curve, poor fit] | –
CCCCN(C(=O)CSc1nnc2ccccn12)c1c(N)n(Cc2ccccc2)c(=O)[nH]c1=O | inconclusive [inhibitor, partial curve, poor fit] | –
c1ccc2c(c1)nc(N1CCOCC1)c1c3ccccc3[nH]c21 | inconclusive [inhibitor, partial curve, poor fit] | –
C=CCN1C(c2ccccc2)=CS/C1=C(\C#N)c1nnc2n1CCCCC2 | inconclusive [inhibitor, partial curve, poor fit] | –
CCn1c(O)c(C=Nc2ccccc2)sc1=O | – | inactive: 32.3%
CCOc1ccc(C(=O)CCC(=O)N(CC)CC(=O)Nc2c(F)cccc2F)cc1 | inconclusive [inhibitor, single point] | –
Cc1cc(Cl)ccc1OCCCC(=O)OCC(=O)c1c(N)n(C)c(=O)n(C)c1=O | inconclusive [inhibitor, full curve, poor fit] | –
O=C(Cn1ccc2ccccc2c1=O)NCC1COc2ccccc2O1 (stereo unspecified) | – | inactive: -1.49%
CCCCN(C(=O)c1cc2c(s1)CCC2)c1c(N)n(CC(C)C)c(=O)[nH]c1=O | inconclusive [inhibitor, single point] | –
O=C(N/N=C/c1cc(Br)ccc1O)C(=O)Nc1ccccc1OC(F)(F)C(F)F | inconclusive [inhibitor, full curve, poor fit] | –
CCN(CC)CCn1c2ccc(Cl)cc2c2nc(C)sc21 | inconclusive [inhibitor, partial curve] | –
Cc1cc2c3c(c1)C(C)CC(C)(C)N3C(=O)C2=C(C#N)C#N (stereo unspecified) | inconclusive [inhibitor, partial curve] | –
COc1ccc(-n2nc(C(=O)NCC(=O)N3CCN(c4ccccc4OC)CC3)c3ccccc3c2=O)c(OC)c1 | active: 1.04 µM | –
O=C(NNC(=O)c1cnccc1C(F)(F)F)c1ccccc1 | inconclusive [inhibitor, full curve, poor fit] | –
CCOC(=O)C1=C(C)NC(=O)NC1c1cc2c(cc1Br)OCO2 (stereo unspecified) | active: 9.28 µM | –
CCCCN(C)CCNC(=O)c1cc2c(=O)[nH]c3ccccc3c2n1C | inconclusive [inhibitor, partial curve] | –
O=C(Nc1ccc(-c2nc3ccccc3o2)c(O)c1)c1cc(-n2cnnc2)ccc1Cl | active: 9.28 µM | –
CC(=O)Nc1ccc(/C=N/NC(=S)NC(C)C)cc1 | inconclusive [inhibitor, partial curve, poor fit] | –
S=C(NCC1CCCO1)N1CCN(c2nc(-c3ccc(Cl)cc3)cs2)CC1 (stereo unspecified) | inconclusive [inhibitor, partial curve] | –

SMILES | Potency | activity change, negative = inhibition
COc1ccc(OCc2cc(C(=O)NC3CCOCC3)no2)c2ccccc12 | inconclusive [inhibitor, partial curve, poor fit] | –
COc1cc(OC)c(NS(=O)(=O)c2cc(Br)cnc2N)cc1Cl | inconclusive [inhibitor, single point] | –
COc1ccc(Cn2c(SCc3cc(C)ccc3C)nc3cc(OC)c(OC)cc3c2=N)cc1 | active: 1.65 µM | –
CCOc1ccc(CN(C)CC(=O)Nc2ccccc2C(=O)NC2CC2)cc1 | inconclusive [inhibitor, single point] | –
NC(=O)C1CCN(c2oc(/C=C/c3ccc(F)cc3)nc2S(=O)(=O)c2ccccc2)CC1 | inconclusive [inhibitor, partial curve] | –
CN1CCc2nc3ccccc3c(C(=O)OCC(=O)N(CCC#N)c3ccccc3)c2C1 | inconclusive [inhibitor, partial curve] | –
CCN1CCN(c2ccc(S(=O)(=O)N3CCCCC3)cc2NC(=O)c2ccc(OC(F)F)cc2)CC1 | inconclusive [inhibitor, single point] | –
COc1cc(CN2CCCC(C(=O)Nc3ccccc3Oc3cccnc3)C2)ccc1F (stereo unspecified) | inconclusive [inhibitor, single point] | –
CCCSc1nc(NCc2ccco2)c2c3c(sc2n1)COC(C)(C)C3 | inconclusive [inhibitor, partial curve] | –
Cc1cc(N2CCN(C)CC2)nc2ccc(NC(=S)NC3CC3)cc12 | inconclusive [inhibitor, partial curve, poor fit] | –
COC(=O)CSCC(=O)Nc1nnc(-c2ccccc2C)s1 | inconclusive [inhibitor, single point] | –
Cc1cc(C)c([C@@H]2C[C@H]3CN(C4CCCC4)C(=O)[C@]34CCCN24)c(-n2cccn2)c1 | inconclusive [inhibitor, single point] | –
COc1ccccc1NC(=O)COC(=O)c1cc([N+](=O)[O-])ccc1N1CCCC1 | inconclusive [inhibitor, single point] | –
COCCNC(=O)CCN1N=C(c2ccccc2)CCC1=O | – | inactive: 26.7% [at 0.00184 µM]
N#Cc1ccc(C(=O)CSc2n[nH]c(=O)n2Cc2ccco2)cc1 | inconclusive [inhibitor, single point] | –
CC1CC(C)CN(C(=O)C2CCCN(c3ncnc4c3nc3n4CCCCC3)C2)C1 (stereo unspecified) | inconclusive [inhibitor, partial curve, poor fit] | –
CCN(CC)c1ccc(C(=O)N/N=C(\C)c2ccc(O)cc2)cc1 | inconclusive [inhibitor, partial curve] | –
CCC1(c2ccc(F)cc2)NC(=O)N(CC(=O)N2CCN(S(=O)(=O)c3ccc(C)cc3)CC2)C1=O (stereo unspecified) | inconclusive [inhibitor, partial curve, poor fit] | –
O=S(=O)(NCCSc1nnnn1-c1ccccc1)c1cccs1 | – | inactive: 41.7%
COc1ccc(/C=N/NC(=O)c2ccn[nH]2)cc1COc1ccc(Cl)cc1Cl | inconclusive [inhibitor, single point] | –
COc1ccc(C(=O)Nc2cc(OC)c(NC(=O)c3ccco3)cc2OC)cc1 | inconclusive [inhibitor, partial curve, poor fit] | –
CCOC(=O)c1[nH]c(C(=O)O)c(OC(=O)CC)c1C | inconclusive [inhibitor, single point] | –
